Screen size: about 150,000 compounds; about 540 (0.36%) showed an effect of 50% or more. The list shows a part of the results.

This is an account of results in ChEMBL document CHEMBL4888484, “Replenishing the malaria drug discovery pipeline: Screening and hit evaluation of the MMV Hit Generation Library 1 (HGL1) against asexual blood stage Plasmodium falciparum ,using a nano luciferase reporter read-out” (2022).

For the assay, the system named is Plasmodium falciparum. Description: Primary screen in NF54 nanoGlo assay, in single point, at 2uM, 72h; a lower Z score goes with more inhibition. Type of assay: functional, Erythrocyte. The settings on record: timepoint 72 hour.
In the case of `CC(C)n1nc(-c2ccncc2)nc1-c1ccncc1`, the “% Inhibition” value is -10% and the Z score was 1.33.
In the case of `CCn1ccnc1CN(C)c1cc([C@H]2C[C@H](N)C2)nc(C2CC2)n1`, the “% Inhibition” value is on record as -4% and the Z score is given as 0.74.
For the compound `Cc1ccc(-c2nc(C(=O)NC(C)(CO)CO)cs2)n1C`, the “% Inhibition” value was -5% and the Z score turned out to be 0.55.
On to `CCN(Cc1nccn1C)C(=O)c1cc(-c2cncnc2)nc2c(C)c(C)ccc12`, for which the “% Inhibition” value was 20% and the Z score is -2.51.
In the same order, the values of `O=C(NCc1ccc2c(c1)OCO2)c1nnc(Cc2ccccc2Cl)o1` are -7% and 1.13.
In the case of `CCn1c(-c2cc(NC(=O)c3ccncc3)[nH]n2)cc2ccc(OC)cc21`, the “% Inhibition” value came to 34% and the Z score is -3.83.
Turning to `NC(=O)c1ccc(CC(=O)N2CCCCC23CCCCCC3)cn1`, the “% Inhibition” value is -7% and the Z score came to 0.7.
As to `Cn1c(CN2CCC[C@@](CO)(CCc3ccccc3)C2)nc2ccccc21`, the “% Inhibition” value is recorded as -4% and the Z score was 0.61.
The corresponding values for `Cc1occc1CNC(=O)NCC1CN2CCCC2CO1` (stereo unspecified) are 0% and 0.05.
The corresponding values for `CO[C@H]1CC[C@@]2(OC)CCN(C(=O)CCn3ccc(=O)[nH]c3=O)[C@H]2C1` are 0% and 0.03.
In the case of `CC(C)c1ccc(C#N)c(N2CC[C@H](N3CCN(C)CC3)[C@H](CCCO)C2)n1`, the “% Inhibition” value is listed as -1% and the Z score is 0.13.
In the case of `O=C(N[C@H]1CCS(=O)(=O)C1)c1cc(Cc2ccccc2)ccc1O`, the “% Inhibition” value was -1% and the Z score worked out at 0.21.
Regarding `CCn1nc(CCOC)nc1[C@H](C)Oc1ccc(F)cc1F`, the “% Inhibition” value is 9% and the Z score is reported as -1.3.
For the compound `CC(C)(C)c1nc(Cn2cnc3ncc(Br)cc32)no1`, the “% Inhibition” value was found to be 32% and the Z score is listed as -4.38.
The corresponding values for `O=C(O)CCCN1Cc2cc(Cl)ccc2C[C@H]1c1ccccc1` are -3% and 0.37.
For the compound `CCCn1nnnc1Cn1cc(S(=O)(=O)N(Cc2ccccc2)Cc2ccccc2)ccc1=O`, the “% Inhibition” value was -4% and the Z score worked out at 0.75.
In the same order, the values of `CCc1nn(C)cc1N[C@@H](C)c1ccc(F)c(O)c1` are -7% and 1.4.
The corresponding values for `Cc1ccncc1NCc1c[nH]nc1C(C)(C)C` are 27% and -3.59.
For `Cc1nn([C@H]2CCCCC2(C)C)c(=O)c2nc(N)sc12`, the “% Inhibition” value is on record as 3% and the Z score is -0.4.
Regarding `Cc1nn(C2CCCC2)c2nc(-c3cccs3)cc(C(=O)O)c12`, the “% Inhibition” value is recorded as -43% and the Z score worked out at 5.01.
For the compound `CN1C[C@@H](Nc2nc(C3CC3)no2)CCC1=O`, the “% Inhibition” value is -11% and the Z score is 1.08.
The corresponding values for `COC[C@@H]1CCCN1C(=O)c1ccc2cccc(Cl)c2n1` are -10% and 1.18.
For the compound `CCOC(=O)c1ccc(NC(=O)Cn2nc(COc3ccc(Cl)cc3Cl)oc2=S)cc1`, the “% Inhibition” value is -30% and the Z score is given as 3.52.
Take `O=C(C[C@H]1CCS(=O)(=O)C1)NCc1ccc2nsnc2c1`: the “% Inhibition” value was 0% and the Z score is reported as -0.02.
Turning to `CC[C@H](C)[C@@H]1NC(=O)N(c2ccccc2F)C1=O`, the “% Inhibition” value was -5% and the Z score is 0.9.
`Cc1ccc(CN2CCN(C(=O)c3ccccc3N(C)C)CC2=O)cc1C`: the “% Inhibition” value is given as -2% and the Z score was found to be 0.28.
With `C1=CCC2CN(c3cnccn3)CC2C1` (stereo unspecified), the “% Inhibition” value is listed as -8% and the Z score was 1.03.
In the case of `Cn1nc(-c2ccccn2)cc1NC(=O)N1C[C@@H]2CC[C@H](C1)C(=O)N2`, the “% Inhibition” value is -5% and the Z score is reported as 0.89.
For `CCCCS(=O)(=O)N1CCNC(=O)C1`, the “% Inhibition” value is -1% and the Z score is on record as 0.08.
In the same order, the values of `COCCN1C[C@@H](c2nc(-c3ccc(OC)c(F)c3)c[nH]2)CC1=O` are -17% and 2.22.
In the same order, the values of `Cc1cc(C(=O)N2CC(n3nccn3)C2)c(C)o1` are 8% and -1.13.
As for `COc1cccc(CN2CCc3c(cc(C(=O)Nc4ccc(F)cc4C)n3C)C2)c1`, the “% Inhibition” value is reported as -2% and the Z score is reported as 0.22.
The corresponding values for `CCc1ccc(N2C(=O)N(C(=O)c3ccco3)C3CC2(C)Oc2ccccc23)cc1` (stereo unspecified) are -5% and 0.58.
Turning to `CCC(C)(C(=O)Nc1cc(OC)cc(OC)c1)N(CC1CCCN2CCCCC12)C(C)=O` (stereo unspecified), the “% Inhibition” value is given as -34% and the Z score stood at 3.98.
For the compound `Cc1ccccc1NC(=O)N1CCC(n2cnc3ccc(Cl)cc3c2=O)CC1`, the “% Inhibition” value is reported as -6% and the Z score is 0.67.
As to `COc1cc(C)ccc1OCc1nc(C(=O)N[C@H]2CCCCNC2=O)co1`, the “% Inhibition” value is given as -3% and the Z score amounted to 0.5.
For `O=C(Cn1ccc2ccccc2c1=O)N1CCCC[C@H]1c1ncon1`, the “% Inhibition” value is listed as -13% and the Z score is 1.68.
For the compound `Cc1cc2c(cc1C)[C@@H](NC1CC1)CCO2`, the “% Inhibition” value is reported as -1% and the Z score is 0.11.
For the compound `Cc1c(C(=O)N[C@H]2CCCNC2=O)oc2ccccc12`, the “% Inhibition” value is listed as -12% and the Z score was 2.27.
For the compound `COc1cccc(CN2CC3(CCN(C(=O)c4ccn(C)n4)CC3)CC2=O)c1`, the “% Inhibition” value was determined as 5% and the Z score is given as -0.64.
`CC1CCN(C(=O)c2n[nH]c3c2CN(C(=O)c2ccco2)CC3)CC1`: the “% Inhibition” value is recorded as -3% and the Z score is recorded as 0.53.
With `CC(=O)NCCn1c(=O)n(Cc2cccc(C)c2)c2cccnc21`, the “% Inhibition” value is -2% and the Z score turned out to be 0.28.
Regarding `CCOC[C@H]1CCN(C(=O)CN2C(=O)Cc3ccccc32)C1`, the “% Inhibition” value worked out at 1% and the Z score is -0.14.
